From PubChem BioAssay AID686978 (National Center for Advancing Translational Sciences (NCATS), 2013)
About 64,000 (15%) of roughly 420,000 compounds were called active. The shares of active, inactive and inconclusive entries below differ from those in the screen. The call rests on the fitted dose curve; in most records, active means well fitted inhibition curve with a large enough effect; inconclusive means small, poorly fitted or top-dose-only effect; inactive means flat fitted curve, though single readings scatter. No potency is given beside an inconclusive call; the fits are too rough.
On the % scale 0 is the no-effect control and ±100 the full control effect; potency means the concentration at half of the fitted maximal effect; tags describe the fitted curve by direction and shape.

Assay: qHTS for Inhibitors of human tyrosyl-DNA phosphodiesterase 1 (TDP1): qHTS in cells in absence of CPT; further: nearly all actives have a fitted effect of over 55% in size
Conditions: DT40 Tdp1-/- hTDP1 cells, no CPT, ATP luminescence, 48 h; activity change, negative = growth inhibition: at 46.2 µM (top of the series)
Method in brief: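 Luminescent ATP content (CellTiter-Glo) served as the growth readout. Knockout chicken DT40 cells expressing human TDP1 were exposed to compounds without camptothecin for a minimum 48 hr at 37 °C.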
In the case of CNC(=O)CSc1nnc(NC(=O)C2CC(=O)N(c3ccccc3OC)C2)s1 (configuration not stated), the Potency is reported as “inactive”. For c1ccc2[nH]c(CCCCc3nc4ccccc4[nH]3)nc2c1, the Potency was “inactive”. For O=[N+]([O-])c1cc([N+](=O)[O-])c2nonc2c1Nc1ccccc1O, the Potency was inconclusive [inhibitor, single point]. In the case of OC1(c2ccc3c(c2)CN(Cc2ccco2)CCO3)CCN(c2ccccc2F)CC1, the Potency is reported as inconclusive [inhibitor, partial curve, poor fit]. With CC(=O)Nc1ccc(S(=O)(=O)NC2=C(N3CCN(c4ccc(F)cc4)CC3)C(=O)c3ccccc3C2=O)cc1 the Potency was active: 16.4 µM. In the case of COc1cccc(C(=O)NCc2nnc(SCC(=O)Nc3nccs3)n2-c2ccccc2)c1, the Potency is reported as “inactive”. For Cc1cccc(C2CC(c3ccccc3)Nc3ncnn32)c1 (configuration not stated), the Potency was inconclusive [inhibitor, partial curve]. With Cn1cccc1C(=O)N1CCC2(CCCN(C(=O)Nc3ccccc3)C2)CC1 the Potency was “inactive”. In the case of Cn1nc(C(=O)Nc2ccc(S(=O)(=O)N3CCCCC3)cc2)ccc1=O, the Potency is reported as active: 20.6 µM. In the case of O=C(NCc1ccccn1)C1CCN(Cc2cccc(OCc3ccccc3)c2)CC1, the Potency is reported as inconclusive [inhibitor, single point]. In the case of O=C(COC(=O)C1CC2CCCC(C1)C2=O)Nc1ccccc1 (configuration not stated), the Potency is reported as “inactive”. With COC(C(=O)Nc1ccc(C(C)=O)cc1)c1ccccc1 (configuration not stated) the Potency was “inactive”. With O=c1cc(CSc2nnnn2-c2ccccc2)nc2scc(-c3ccccc3)n12 the Potency was inconclusive [inhibitor, single point]. With CCCOC(=O)c1ccc(NC(=O)c2nc3nc(C)cc(C)n3n2)cc1 the Potency was inconclusive [inhibitor, single point]. In the case of O=C(COC(=O)Cn1cnc2ccccc2c1=O)Nc1cc(Cl)ccc1[N+](=O)[O-], the Potency is reported as “inactive”. With CC1(C)CC(=O)N(CC(=O)O)c2ccccc2S1 the Potency was “inactive”. In the case of O=C(NCCc1ccccc1)C1(c2ccccc2)CCCC1, the Potency is reported as inconclusive [inhibitor, partial curve]. With COc1ccc(-c2c3c(=O)n(C)c(=O)n(C)c3cn2N2CCOCC2)cc1 the Potency was inconclusive [inhibitor, partial curve]. For O=C(Cn1nc2c(cc1=O)CCCC2)NCc1ccccc1, the Potency was inconclusive [inhibitor, single point]. In the case of CCC1CCCCN1S(=O)(=O)c1ccc(NC(=O)c2snnc2C)cc1 (configuration not stated), the Potency is reported as inconclusive [inhibitor, partial curve]. In the case of O=S(=O)(c1ccc2nc(Nc3ccc(Br)cc3F)ccc2c1)N1CCCC1, the Potency is reported as “inactive”. With O=C(NCc1ccccc1Cl)C1CCN(S(=O)(=O)c2ccc(-n3cnnn3)cc2)CC1 the Potency was “inactive”. For NNc1nc2c(-c3ccc(Cl)cc3)nnn2c2ccccc12, the Potency was inconclusive [inhibitor, partial curve]. For CCCN1CCC(N2CCN(c3ccc([N+](=O)[O-])cc3)CC2)CC1, the Potency was active: 20.6 µM. For COc1ccc(C(=O)OCC(=O)Nc2sccc2C(N)=O)cc1OC, the Potency was inconclusive [inhibitor, full curve]. With COc1cc2ncnc(NCc3ccc(C)o3)c2cc1OC the Potency was active: 20.6 µM. For COC(=O)c1cccc(C(=O)N2CCC(CCC(=O)NCc3ccc(F)cc3)CC2)c1, the Potency was “inactive”. In the case of CCOc1ccc(Br)cc1S(=O)(=O)Nc1ccc(C(=O)OC(C)C(=O)N(C)c2ccccc2)cc1 (configuration not stated), the Potency is reported as inconclusive [inhibitor, single point]. In the case of O=C(NCCC1=CCCCC1)c1cc(S(=O)(=O)N2CCOCC2)ccc1F, the Potency is reported as inconclusive [inhibitor, single point]. In the case of COc1ccc(S(=O)(=O)N2CCCCCC2)cc1N(C)S(=O)(=O)c1ccc(Cl)cc1, the Potency is reported as active: 18.4 µM. In the case of OCC[C@@H]1C[C@H](O)[C@@H](O)[C@@]2(CCCc3ccccc3O2)O1, the Potency is reported as “inactive”. For NC(=O)C1CCN(C2=C(NS(=O)(=O)c3ccccc3)C(=O)c3ccccc3C2=O)CC1, the Potency was inconclusive [inhibitor, single point]. With COc1cc(=O)[nH]c(=O)n1C(=O)Cc1ccccc1 the Potency was inconclusive [inhibitor, single point]. With Cc1ccc(C(=O)N2CCC(C(=O)c3c(C)cc(C)cc3C)CC2)cc1 the Potency was inconclusive [inhibitor, full curve]. In the case of O=C(NCCCc1ccccc1)c1cccc(Br)c1, the Potency is reported as “inactive”. In the case of CC1CCc2c(sc3nc4n(c(=O)c23)CCS4)C1 (configuration not stated), the Potency is reported as “inactive”. For COc1ccc(C2CC(O)(c3ccccc3)Oc3c(C)ccc(C)c32)cc1 (configuration not stated), the Potency was inconclusive [inhibitor, single point]. With Cc1ccc(C)c(NC(=O)CCN2CCC(C)CC2)c1 the Potency was “inactive”. For CC(C)COc1ccc(-c2nnc(-c3ccco3)o2)cc1, the Potency was “inactive”. In the case of CC(NC(=O)NC12CC3CC(CC(C3)C1)C2)c1ccc2c(c1)OCO2 (configuration not stated), the Potency is reported as inconclusive [inhibitor, partial curve]. For COc1ccc(CCNC(=O)C2CCCN2C(=O)Nc2cccc(C(C)=O)c2)cc1OC (configuration not stated), the Potency was “inactive”. In the case of COc1cccc(CN(C)C(=O)c2cccc(S(=O)(=O)Nc3cccc(C)c3)c2)c1OC, the Potency is reported as active: 16.4 µM. In the case of Cc1ccc(C)c(-c2cc(C(=O)Nc3nccs3)c3ccccc3n2)c1, the Potency is reported as inconclusive [inhibitor, single point]. For COc1cccc(/C=N\NC(C)=O)c1OC/C=C/c1ccccc1, the Potency was inconclusive [inhibitor, single point]. For Cn1c(Cc2ccccc2)nnc1SCC(=O)NC1CCCCC1, the activity change, negative = growth inhibition was inconclusive: 0.0874% [inhibitor]. With Cc1cc(NC(=O)c2oc3c(c2C)-c2[nH]ncc2CC3)ccc1Br the Potency was active: 18.4 µM. For C/C=C(/C)C(=O)O[C@@H]1c2c(ccc3ccc(=O)oc23)O[C@@H]1C(C)(C)OC(=O)/C(C)=C\C, the Potency was active: 16.4 µM. With CNC(=O)c1cc2cccc(OC)c2oc1=O the Potency was “inactive”. With CCc1ccccc1N1CN(Cc2ccco2)CNC1=S the Potency was inconclusive [inhibitor, full curve, poor fit]. With COc1ccc(CC(=O)OCC(=O)NC(=O)Nc2ccccc2F)cc1 the Potency was “inactive”. For O=C(CN(Cc1ccccc1)C(=O)CNS(=O)(=O)c1ccc(Cl)cc1)NCC1CCCO1 (configuration not stated), the Potency was “inactive”. For O=C(CNC(=O)c1cccs1)NCCN1CCN(c2ccccc2F)CC1, the Potency was “inactive”. For O=C(C1=C(O)C(=O)N(c2ccccc2)C1c1ccc([N+](=O)[O-])cc1)c1cccs1 (configuration not stated), the Potency was inconclusive [inhibitor, single point]. With O=C(NC12CC3CC(CC(C3)C1)C2)N1CCN(c2ccccc2)CC1 the Potency was inconclusive [inhibitor, single point]. In the case of CC(=O)NC(C)(c1ccccc1)c1nc(-c2ccncc2)cs1 (configuration not stated), the Potency is reported as “inactive”. In the case of C/C(Cl)=C/Cn1c(SC(C)C)nc2c1c(=O)[nH]c(=O)n2C, the Potency is reported as active: 16.4 µM. In the case of NS(=O)(=O)c1cc2c(cc1Cl)NC(CC1CCCC1)NS2(=O)=O (configuration not stated), the Potency is reported as “inactive”. With COC(=O)Cn1c(C(=O)N2CCCC2)cc2c1C[C@H]1CN(C(=O)c3ccccc3)[C@@](Cc3ccc(OC)cc3)(C(=O)OC)[C@@H]21 the Potency was inconclusive [inhibitor, single point]. With Cc1nc(C)n(CC(O)COc2ccc3cc(Br)ccc3c2)n1 (configuration not stated) the Potency was inconclusive [inhibitor, single point]. With COc1ccccc1C1c2[nH]c3ccccc3c2CCN1Cc1ccc(NC(C)=O)s1 (configuration not stated) the Potency was inconclusive [inhibitor, single point]. In the case of Cc1c(-c2ccn[nH]2)cc(NC(=O)c2ccc(Cl)cc2)c(=O)n1N, the Potency is reported as “inactive”. With CN(C)c1ccc(S(=O)(=O)N2CCCCC2)cc1NC(=O)C1=COCCO1 the Potency was “inactive”. With O=C(Cc1ccccc1)N/N=C/c1ccccc1OCc1ccc(Cl)cc1 the Potency was inconclusive [inhibitor, single point]. For O=C(Cn1cnc2c(nnn2Cc2ccc(F)cc2)c1=O)NCC1CCCO1 (configuration not stated), the Potency was “inactive”. With COc1ccc(Nc2ncc(C(=O)Nc3ccc(F)cc3F)c3ccccc23)cc1 the Potency was active: 18.4 µM. For CCCOc1ccc(/C=C2\SC(N)=NC2=O)cc1OC, the Potency was inconclusive [inhibitor, partial curve]. In the case of COc1ccc(C2=NS(=O)(=O)N(C)C(C(=O)N3CCCCC3)=C2)cc1, the Potency is reported as inconclusive [inhibitor, single point]. For O=C(CCC(=O)Nc1cccc([N+](=O)[O-])c1)N/N=C/c1cccs1, the Potency was “inactive”. In the case of O=C(Nc1ccccc1)N(CCc1nc2ccccc2[nH]1)C1CCCC1, the Potency is reported as “inactive”. For COC(=O)/C(C#N)=C/c1c(-c2ccccc2)nc2n1CCS2, the Potency was inconclusive [inhibitor, partial curve, poor fit]. For CN(C(=O)c1ccco1)c1nc(CC(=O)Nc2ccccc2)cs1, the activity change, negative = growth inhibition was inconclusive: -33.8% [inhibitor]. For CCn1c(C)nc2cc(C(=O)NN=Cc3ccc([N+](=O)[O-])cc3)ccc21, the Potency was “inactive”. In the case of O=c1oc2ccccc2c2c1C(c1ccc(Cl)cc1)Nc1ccc3ccccc3c1-2 (configuration not stated), the Potency is reported as inconclusive [inhibitor, single point]. With CC1CC(C)CN(Cc2nc(N)nc(Nc3ccc4ccccc4c3)n2)C1 (configuration not stated) the Potency was active: 20.6 µM. In the case of COc1ccc(C(OCC(O)CN2CCC(O)CC2)c2ccc(OC)cc2)cc1 (configuration not stated), the Potency is reported as “inactive”. In the case of C[C@@H]1CC[C@@]2(O[C@@H](CCO)C[C@H](O)[C@H]2O)O1, the Potency is reported as “inactive”. With COc1ccc(CCNC(=O)c2ccc3c(c2)S(=O)(=O)N=C2CCCCCN23)cc1OC the Potency was “inactive”.
